# Measurements reported in paper PMC4336329 (PLoS ONE, 2015).
# The campaign covered roughly 310,000 compounds. About 14,000 (4.5%) showed an effect of 50% or more. The effect is printed as a negative number. The list shows a part of the results.
# Biological target: human ether-à-go-go-related gene (hERG) potassium channel (human, UniProt Q12809)
# Experiment: primary screen, population patch clamp on CHO cells stably expressing hERG
# Description: Briefly, Chinese hamster ovary (CHO) cells stably expressing the hERG channel were dislodged from tissue culture flasks and dispensed into PPC plates. […] During the recording, background leak currents were estimated by a 100 ms step to -80 mV from an initial holding potential of -70 mV and subtracted from the subsequent current measurement. The campaign was conducted in two phases using slight differences in recording protocol. In the first phase, the initial voltage pulse used a 100 ms step to -30 mV from a holding potential of -70 mV, a 2 s conditioning step to +25 mV, and a 2 s test step to -30 mV. During the second phase of the screen, the potential during the conditioning step was raised to +45 mV. In both phases of the campaign, a secondary voltage pulse was applied using the same parameters as the second phase initial pulse. The initial and secondary pulses were applied in the absence of compound, and upon application of 1 μM and 10 μM test concentrations. […]
# 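Further: peak tail current of the secondary pulse compared with the same well before compound.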
# human ether-à-go-go-related gene (hERG) potassium channel, sequence (Q12809 whole entry, looked up): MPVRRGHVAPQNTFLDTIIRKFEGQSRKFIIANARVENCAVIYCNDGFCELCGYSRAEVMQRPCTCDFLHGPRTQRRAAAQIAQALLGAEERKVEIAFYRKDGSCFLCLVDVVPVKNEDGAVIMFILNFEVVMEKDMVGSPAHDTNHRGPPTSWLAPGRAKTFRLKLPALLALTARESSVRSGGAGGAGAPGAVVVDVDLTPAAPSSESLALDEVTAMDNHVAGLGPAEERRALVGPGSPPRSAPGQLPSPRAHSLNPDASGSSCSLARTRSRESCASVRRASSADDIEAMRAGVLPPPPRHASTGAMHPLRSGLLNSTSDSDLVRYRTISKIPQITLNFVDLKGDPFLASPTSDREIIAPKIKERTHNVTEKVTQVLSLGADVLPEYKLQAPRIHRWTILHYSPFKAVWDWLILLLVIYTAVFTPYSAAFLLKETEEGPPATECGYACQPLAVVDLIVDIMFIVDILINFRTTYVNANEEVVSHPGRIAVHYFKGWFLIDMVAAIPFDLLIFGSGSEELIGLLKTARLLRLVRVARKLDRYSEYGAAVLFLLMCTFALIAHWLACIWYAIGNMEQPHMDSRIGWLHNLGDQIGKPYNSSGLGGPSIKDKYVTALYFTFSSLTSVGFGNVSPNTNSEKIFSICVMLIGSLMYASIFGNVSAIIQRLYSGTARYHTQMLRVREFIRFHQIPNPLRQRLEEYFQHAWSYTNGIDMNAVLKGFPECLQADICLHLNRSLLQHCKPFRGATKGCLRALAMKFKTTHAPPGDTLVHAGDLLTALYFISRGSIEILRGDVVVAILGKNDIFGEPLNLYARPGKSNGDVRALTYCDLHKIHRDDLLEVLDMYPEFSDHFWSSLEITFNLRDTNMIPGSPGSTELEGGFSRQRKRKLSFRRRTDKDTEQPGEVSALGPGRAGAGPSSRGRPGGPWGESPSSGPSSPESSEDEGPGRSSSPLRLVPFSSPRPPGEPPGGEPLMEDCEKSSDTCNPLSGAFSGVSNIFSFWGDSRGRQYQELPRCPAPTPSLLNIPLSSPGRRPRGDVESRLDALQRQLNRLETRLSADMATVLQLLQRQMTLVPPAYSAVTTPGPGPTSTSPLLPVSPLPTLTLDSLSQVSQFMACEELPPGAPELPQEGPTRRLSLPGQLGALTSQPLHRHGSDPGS
row,SMILES,"hERG current change (%, negative = inhibition) at 10uM [%]"
1,Cc1cccc(C)c1NC(=O)C(NC(=O)c1ccccn1)c1ccc([N+](=O)[O-])cc1 (centres unmarked),7.6
2,CCn1c(SCC(=O)NCc2ccccc2)nnc1-c1ccccc1O,-7.65
3,C/C(=N\NC(=O)c1nnn(-c2nonc2N)c1CSc1ccc(Cl)cc1)c1ccco1,-0.36
4,O=C(Cn1cnc2c(nnn2Cc2ccccc2)c1=O)N1CCN(c2ccccc2)CC1,-42.5
5,O=S(=O)(c1cnc(Cl)c(Cl)c1)N1CCCc2ccccc21,6.26
6,O=C(CSc1nnc(-c2ccccc2F)o1)NC1CCCCC1,0.937
7,O=C(Cc1ccc(Cl)c(Cl)c1)Nc1ccc(SC(F)F)cc1,12.2
8,Cc1ccc(-n2c(C)cc(/C=C3/SC(=O)N(CC(=O)N4CCOCC4)C3=O)c2C)nc1,19.8
9,CC(C)Cn1c(N)c(C(=O)CCl)c(=O)n(C)c1=O,3.4
10,COc1ccccc1NC(=O)CN1C(=O)COc2ccc(S(=O)(=O)N3CCC(C)CC3)cc21,0.0721
11,Cc1ccc(C(C(=O)NC2CCCCC2)N(C(=O)c2csnn2)C2CC2)o1 (centres unmarked),-57.6
12,O=C1N(Cc2ccc(F)cc2)CCN1c1ccc(F)cc1,-49.9
13,Cc1cc(N2CCN(C(=O)Nc3ccccc3C#N)CC2)c2ccccc2n1,-72.9
14,O=c1cc[nH]c2ccc(Cl)cc12,14.2
15,Cc1ccccc1C(=O)N1CCN(c2ccc(NC(=S)NC(=O)c3cccs3)cc2)CC1,0.736
16,CC1(CCl)CN1S(=O)(=O)c1ccccc1 (centres unmarked),5.57
17,CC(=O)c1cccc(S(=O)(=O)NC(C)C2CC3CCC2C3)c1 (centres unmarked),-7.29
18,Cc1cccc(-n2c(SCC(=O)O)nc3sc4c(c3c2=O)CCC4)c1,19.7
19,NS(=O)(=O)c1ccc(CCNCC(=O)N2CCC(Cc3ccccc3)CC2)cc1.O=C(O)C(=O)O,-37.1

row,SMILES,"hERG current change (%, negative = inhibition) at 10uM [%]"
1,O=C(COC(=O)/C=C/c1cccs1)Nc1nc(-c2ccccc2)cs1,12.1
2,O=C(CN1CCS(=O)(=O)CC1)N/N=C/c1cccc(C(F)(F)F)c1,2.75
3,CCCCNCCOCCOc1ccccc1-c1ccccc1.O=C(O)C(=O)O,-50.1
4,CC(C)(CO)Cc1cc(C(C)(C)C)c(O)c(C(C)(C)C)c1,-7.77
5,CCOC(=O)N1CCN(CC(O)COC2CC(C)CCC2C(C)C)CC1.Cl (centres unmarked),-33.1
6,CCOC(=O)Cn1c(C)c(Br)c(=O)c2cccc(C)c21,2.49
7,Cc1cc(-c2ccc(S(=O)(=O)N3CCc4ccccc4C3)s2)on1,15.1
8,O=C(CSc1nnc(-c2ccc(C(F)(F)F)cn2)s1)c1ccccc1,13.4
9,Cc1cc2[nH]c(=O)c(=O)[nH]c2cc1S(=O)(=O)N1CCN(c2cccc(Cl)c2)CC1,7.87
10,CNS(=O)(=O)c1cn(CC(=O)N(C)Cc2ccccc2)cc1S(=O)(=O)NC,-11.3
11,CCOc1ccccc1N(C(=O)Nc1cccc(Cl)c1)C1=NC(C)CS1 (centres unmarked),9.17
12,Cc1ccccc1C=Nc1ccccc1C(N)=O,1.68
13,CCc1ccc(C2CC(c3ccccc3)Nc3nc(N)nn32)cc1 (centres unmarked),3.94
14,Cc1ccccc1OCc1nnc(SCC(=O)Nc2ccc3nc(SCC(=O)NC(C)(C)C)sc3c2)n1C,14.3
15,CCCCc1cc(=O)oc2c3c(cc(OCC(=O)N4CCC[C@H]4C(=O)O)c12)OC(C)(C)CC3,13.3
16,CCOc1ccccc1C(=O)Nc1cccc(-c2ccc(N3CCOCC3)nn2)c1,-30.1
17,CCOC(=O)Cn1ncn(-c2ccc(OC(F)(F)F)cc2)c1=O,24.1
18,O=C(NCc1ccco1)C1CC(c2ccc(Cl)c(Cl)c2)=NO1 (centres unmarked),8.51
19,Br.C(CCCN1CCCCC1)CCN1CCCCC1,8.23

row,SMILES,"hERG current change (%, negative = inhibition) at 10uM [%]"
1,Cc1ccc(C2CC(c3cccs3)=NN2C(=O)CSc2nc(=O)n3cc(C)ccc3n2)cc1 (centres unmarked),-66.6
2,CCCc1cc(=O)n2c([nH]c3ccccc32)c1C#N,8.13
3,Cc1oc2nc(SCC(=O)NCCCO)nc(N)c2c1C,2.63
4,CS(=O)(=O)N(CCc1ccccc1)CC(=O)Nc1ccc(Br)cc1F,13.5
5,COc1cccc(CNC(C)(C)CO)c1OCc1ccc(Cl)cc1.Cl,-56.6
6,N#Cc1cccc(NC(=O)CNc2cccc(S(=O)(=O)N3CCCC3)c2)c1,-26
7,O=C(COC(=O)CCC1CCCC1)Nc1cccc(S(=O)(=O)N2CCOCC2)c1,-31.8
8,CCOC(=O)NC1Cc2ccccc2C1Sc1ccccn1 (centres unmarked),7.65
9,CCCCN(Cc1ccco1)C(=O)c1cc2c(=O)[nH]c3ccc(C)cc3c2s1,16.6
10,CCOC(=O)C1CCN(S(=O)(=O)c2ccc3[nH]c(=O)c(=O)[nH]c3c2)CC1,26.6
11,Cc1cccn2c(=O)c3c(nc12)N1CCC(Cc2ccccc2)CC1C1(C3)C(=O)N(C)C(=O)N(C)C1=O (centres unmarked),-0.575
12,Cc1ccc(S(=O)(=O)N2CCCCC2)cc1NC(=O)Cn1cnnn1,4.33
13,CC(C)c1ccc(C(=O)NCCCN2CCOCC2)cc1,-5.2
14,CC(=O)NCCc1nc2ccccc2n1Cc1cc(C)ccc1C,-4.18
15,CCOc1ccc(OCCC(=O)N2CCN(S(=O)(=O)c3cccc(F)c3)CC2)cc1,-62.4
16,COc1ccc(CNC(=O)c2cc3c(=O)n4ccccc4nc3n(CC3CCCO3)c2=N)cc1 (centres unmarked),-72.5
17,Nc1c(-c2ccc(Cl)cc2)nnn1-c1ccccc1,-4.88
18,O=C(NC1CCCCC1)c1ccc(CS(=O)(=O)c2ccc(Cl)cc2)o1,-29.1
